Some of the results follow.
Test system: T1, C. trachomatis L2/434/Bu expressing GFP (CTL2-GFP)
T1 construct: L2/434/Bu GFP intracellular growth in HeLa cells
Parameters: species or system HeLa; C. trachomatis total inclusion area by high-content imaging, normalised to DMSO
Conditions: total inclusion area; 28.5 h, 10 µM; inhibitor
Procedure, shortened: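 High-content imaging followed the bulk GFP/resorufin measurement: fixed, Hoechst-stained cells were scored for GFP inclusions and host nuclei per well. Total inclusion area and count served as growth proxies, nuclei number as the viability proxy. MIC calculation matched the bulk assay.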

Structure (SMILES) | % of control remaining
Cc1cc(C)c2c(CC(=O)N(C)CCN(C)C)coc2c1 [CBK282174] | 96.7998
O=C(NCc1ccncc1)c1ccc(-n2ccnc2)c(-n2cccc2)c1 [CBK285367] | 96.4915
CC1=NN(C(=O)c2c(Cl)c(C)nn2C)C(O)(C(F)(F)F)C1 (stereo not drawn) [CBK058892] | 103.365
Cc1cc(-c2cnc(N)nc2)cc(C2CCCN(C(=O)COc3c(C)cccc3C)C2)n1 (stereo not drawn) [CBK285933] | 95.6122
c1cncc(OCCN2CCN(c3nccnc3OCCN3CCOCC3)CC2)c1 [CBK082914] | 96.0267
CN(C)c1ncc(-c2ccccc2)c(C2CCCN2Cc2ccc3ncccc3c2)n1 (stereo not drawn) [CBK286256] | 61.881
CC(=O)Nc1nc(OCC(F)(F)F)cnc1-c1cccc(C(=O)N(C)C)c1 [CBK145401] | 92.3109
O=c1c2c(-c3ccc(F)cc3)csc2ncn1CC1(CO)CCOCC1 [CBK306822] | 69.3894
CCCc1ccc(N(C)C(=O)c2ccc(OCC)cc2)cc1 [CBK161615] | 50.9013
O=C(Nc1ccc2c(c1)CCO2)N1CCCC1c1nc(-c2ccccc2)c2ccccn12 (stereo not drawn) [CBK046733] | 83.0278
CC(C)(N)CNC(=O)c1cc(-c2ccc(Cl)cc2)[nH]n1 [CBK116554] | 103.265
COc1ccc(-c2cc(NC(=S)NC(=O)/C=C/c3ccccc3)[nH]n2)cc1 [CBK007190] | 81.5037
Clc1ccc(CN2CCN(c3nccnc3OCCN3CCOCC3)CC2)cc1 [CBK082887T] | 84.9783
O=C(NCc1cccc(C(F)(F)F)c1)N1CCN(CCc2ccccc2)CC1 [CBK158902] | 85.396
Cc1ccc(Nc2nc(N)nc(CSc3nnc(-c4ccncc4)o3)n2)cc1 [CBK266464] | 113.206
OCC1CCCN1c1nccnc1-c1cccnc1 (stereo not drawn) [CBK089049] | 92.0181
O=C(O)COCC(=O)N1CCN(CCc2ccccc2)CC1 [CBK270298] | 85.8003
Cc1ccccc1OCc1nnc(SCc2nnc(-c3ccccc3)o2)n1C [CBK267406] | 108.885
Cc1ccc2nc(-c3ccncc3)cc(C(=O)N3CCN(C4CCCCC4)CC3)c2c1 [CBK267736] | 120.221
CC(C)(C)OC(=O)NCc1ccc2cccc(OCCO)c2n1 [CBK000585] | 79.3272
Cc1c(C(C)NCC(O)c2ccco2)cnn1-c1ccc(C#N)cc1 (stereo not drawn) [CBK306462] | 68.4066
COc1ccc(CNc2nc(-c3cccnc3)nn2C(=O)c2ccc([N+](=O)[O-])cc2)cc1 [CBK268966] | 117.533
CN(Cc1cnn(C)c1)C(=O)c1ccc(Br)cc1O [CBK305742] | 20.5902
CC(=O)NCc1ccc(C)n1C [CBK046356] | 110.661
Cc1nnnn1-c1cc(NC(=O)NCCCc2nc[nH]n2)ccc1F [CBK304102] | 27.8982
CCOC(=O)N1CCC(NC(=O)CCC(=O)O)CC1 [CBK286569] | 57.3678

Structure (SMILES) | % of control remaining
CNC(=O)CCc1ccccc1NC(=O)NCCSc1ncn[nH]1 [CBK307253] | 87.1043
CN(Cc1ccccc1)c1nccnc1-c1ccsc1 [CBK037394] | 119.713
Cc1cc(Cl)ccc1CNC(=O)C1(c2ccccc2)CCCC1 [CBK149519] | 104.883
CN(C)C(=O)c1ccc(-c2ncc(OCc3cccs3)nc2N)cc1 [CBK145187] | 100.895
CCCCCn1c(=O)c(C(=O)NCc2ccc(Cl)cc2)c(O)c2ccccc21 [CBK291131] | 100.766
CCOc1c(CNCc2ccccn2)cccc1OC [CBK268104C] | 122.068
Cc1ccc(-c2n[nH]c(=S)n2CC(=O)N2CCC(C(=O)Nc3ccc4c(c3)OCO4)CC2)cc1 [CBK297887] | 87.9553
Cc1ccc(C(=O)NCCc2nnc3ccc(Cl)nn23)cc1 [CBK287636] | 101.635
CC(C)(C)OC(=O)N1CCC(C(Cc2ccc(-c3ccc(S(C)(=O)=O)cc3)cc2)C(=O)NCCOCCO)CC1 (stereo not drawn) [CBK173128] | 95.177
COc1nc2ccn(CCNC(=O)C(C)C)c(=O)c2cc1C#N [CBK307015] | 74.9831
N#Cc1cc(CN2CCCN(S(=O)(=O)c3ccc(C(F)(F)F)cc3Cl)CC2)ccc1F [CBK063100] | 70.8998
O=C(O)CC(CC(=O)N1CCN(Cc2ccc3c(c2)OCO3)CC1)c1ccccc1 (stereo not drawn) [CBK074769] | 90.7498
Cc1nc[nH]c1CN1CCCN(S(=O)(=O)c2ccc(-n3cnc(Cl)c3Cl)cc2)CC1 [CBK063087] | 92.8468
COc1cnc(-c2cnn(C)c2)c(NC(=O)c2ccco2)n1 [CBK145329] | 98.6367
O=[N+]([O-])c1ccc(N2CCN(C/C=C/c3ccccc3[N+](=O)[O-])CC2)cc1 [CBK261895] | 98.7037
CC(=O)N(C)Cc1cccc(Nc2ncnc3c2cnn3CCC#N)c1 [CBK306232] | 29.5638
c1ccc(CSc2nnc3[nH]c4ccccc4n23)cc1 [CBK267841] | 87.4244
CN1CCC(O)(Cn2cnc3cc(-c4ccc(F)cc4)sc3c2=O)CC1 [CBK307434] | 50.7914
O=S(=O)(Nc1ccc(C(O)(C(F)(F)F)C(F)(F)F)cc1)c1ccccc1Br [CBK062101] | 97.6067
CC(=O)c1ccc(-c2nc(-c3ccoc3)cnc2N)cc1 [CBK064058] | 108.592
Cc1nc(CCNCc2c(C)nn(C)c2N(C)C)cs1 [CBK304828] | 66.6076
Cc1nc2cc(C(=O)NC(C)c3ccccn3)ccc2n1C (stereo not drawn) [CBK281822] | 137.016
O=C(c1ccc2[nH]nnc2c1)N1CCc2ccccc21 [CBK200365] | 107.79
C=CCN(C(=S)NCc1ccc2c(c1)OCO2)C1CCCCC1 [CBK200037] | 112.179
CCOC(=O)c1cnc2ccc(F)cc2c1NCc1ccco1 [CBK265834] | 79.0176
